Results published in the supplement of paper PMC11876631.
Positions count from the first letter of the chain named. In names and notes the source's numbering stands. ± gives the standard deviation of the averaged measurements. Laboratory Escherichia coli strains with one amino-acid change in an essential protein, pooled on minimal glucose agar with carbenicillin or gentamicin at twice the control MIC (plus kanamycin and chloramphenicol for the plasmids), 48 h. Fold change of barcode share against drug-free plates; higher = less susceptible. Active = above 20 in both replicates (the paper's putatively resistant). '<' = one read or none on drug, '>' = one read or none on a drug-free plate. Shares are relative, so most strains fall below 1 when a few take over. Listed are strains with at least 15 reads on both drug-free plates, and hits; most hits rest on fewer reference reads. Replicate rank correlation about 0.5. Edits are read from barcodes.

Target: Escherichia coli (laboratory strain)
Experiment: barcode share on antibiotic plates over drug-free plates; higher = less susceptible
Description: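 A pool of E. coli strains, each edited to carry one amino-acid change in an essential protein, was grown for 48 h on minimal glucose agar with or without antibiotic; strain barcodes were sequenced; mean of two replicates.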

[1] = antibiotic: carbenicillin, 2× MIC (3.1 µg/mL)
[2] = antibiotic: gentamicin, 2× MIC (MIC 0.45 µg/mL)

B1: cysG V245A (protein)
chain: MDHLPIFCQLRDRDCLIVGGGDVAERKARLLLDAGARLTVNALAFIPQFTAWADAGMLTLVEGPFDESLLDTCWLAIAATDDDALNQRVSEAAEARRIFCNVVDAPKAASFIMPSIIDRSPLMVAVSSGGTSPVLARLLREKLESLLPLHLGQVAKYAGQLRGRVKQQFATMGERRRFWEKLFVNDRLAQSLANNDQKAITETTEQLINEPLDHRGEVVLVGAGPGDAGLLTLKGLQQIQQADVAVYDRLVSDDIMNLVRRDADRVFVGKRAGYHCVPQEEINQILLREAQKGKRVVRLKGGDPFIFGRGGEELETLCNAGIPFSVVPGITAASGCSAYSGIPLTHRDYAQSVRLITGHLKTGGELDWENLAAEKQTLVFYMGLNQAATIQQKLIEHGMPGEMPVAIVENGTAVTQRVIDGTLTQLGELAQQMNSPSLIIIGRVVGLRDKLNWFSNH
[1]
  fold change of barcode share: 0.463 ± 0.15
[2]
  fold change of barcode share: < 0.00545

B2: cysI V221A (protein)
chain: MSEKHPGPLVVEGKLTDAERMKHESNYLRGTIAEDLNDGLTGGFKGDNFLLIRFHGMYQQDDRDIRAERAEQKLEPRHAMLLRCRLPGGVITTKQWQAIDKFAGENTIYGSIRLTNRQTFQFHGILKKNVKPVHQMLHSVGLDALATANDMNRNVLCTSNPYESQLHAEAYEWAKKISEHLLPRTRAYAEIWLDQEKVATTDEEPILGQTYLPRKFKTTVAIPPQNDIDLHANDMNFVAIAENGKLVGFNLLVGGGLSIEHGNKKTYARTASEFGYLPLEHTLAVAEAVVTTQRDWGNRTDRKNAKTKYTLERVGVETFKAEVERRAGIKFEPIRPYEFTGRGDRIGWVKGIDDNWHLTLFIENGRILDYPARPLKTGLLEIAKIHKGDFRITANQNLIIAGVPESEKAKIEKIAKESGLMNAVTPQRENSMACVSFPTCPLAMAEAERFLPSFIDNIDNLMAKHGVSDEHIVMRVTGCPNGCGRAMLAEVGLVGKAPGRYNLHLGGNRIGTRIPRMYKENITEPEILASLDELIGRWAKEREAGEGFGDFTVRAGIIRPVLDPARDLWD
[1]
  fold change of barcode share: 0.298 ± 0.14
[2]
  fold change of barcode share: 0.028 ± 0.00081

B3: cysI V238W (protein)
chain: B2 chain with A221V, V238W
[1]
  fold change of barcode share: 1.76 ± 1
[2]
  fold change of barcode share: 0.0244 ± 0.026

B4: cysI V238P (protein)
chain: B2 chain with A221V, V238P
[1]
  fold change of barcode share: 2.58 ± 2.3
[2]
  fold change of barcode share: 0.0372 ± 0.036

B5: cysI I362W (protein)
chain: B2 chain with A221V, I362W
[1]
  fold change of barcode share: 0.455 ± 0.035

B6: cysI V238Q (protein)
chain: B2 chain with A221V, V238Q
[1]
  fold change of barcode share: 1.006 ± 0.0043
[2]
  fold change of barcode share: 0.131 ± 0.06

B7: cysI I399A (protein)
chain: B2 chain with A221V, I399A
[1]
  fold change of barcode share: 0.956 ± 0.97

B8: cysI V238A (protein)
chain: B2 chain with A221V, V238A
[1]
  fold change of barcode share: 0.756 ± 0.24
[2]
  fold change of barcode share: 0.03579 ± 3.7e-05

B9: cysJ I570A (protein)
chain: MTTQVPPSALLPLNPEQLARLQAATTDLTPTQLAWVSGYFWGVLNQQPAALAATPAPAAEMPGITIISASQTGNARRVAEALRDDLLAAKLNVKLVNAGDYKFKQIASEKLLIVVTSTQGEGEPPEEAVALHKFLFSKKAPKLENTAFAVFSLGDSSYEFFCQSGKDFDSKLAELGGERLLDRVDADVEYQAAASEWRARVVDALKSRAPVAAPSQSVATGAVNEIHTSPYSKDAPLVASLSVNQKITGRNSEKDVRHIEIDLGDSGMRYQPGDALGVWYQNDPALVKELVELLWLKGDEPVTVEGKTLPLNEALQWHFELTVNTANIVENYATLTRSETLLPLVGDKAKLQHYAATTPIVDMVRFSPAQLDAEALINLLRPLTPRLYSIASSQAEVENEVHVTVGVVRYDVEGRARAGGASSFLADRVEEEGEVRVFIEHNDNFRLPANPETPVIMIGPGTGIAPFRAFMQQRAADEAPGKNWLFFGNPHFTEDFLYQVEWQRYVKDGVLTRIDLAWSRDQKEKVYVQDKLREQGAELWRWINDGAHIYVCGDANRMAKDVEQALLEVAAEFGGMDTEAADEFLSELRVERRYQRDVY
[1]
  fold change of barcode share: 0.545 ± 0.23
[2]
  fold change of barcode share: 0.0145 ± 0.0072

B10: acpS V11W (protein)
chain: MAILGLGTDIWEIARIEAVIARSGDRLARRVLSDNEWAIWKTHHQPVRFLAKRFAVKEAAAKAFGTGIRNGLAFNQFEVFNDELGKPRLRLWGEALKLAEKLGVANMHVTLADERHYACATVIIES
[1]
  fold change of barcode share: 0.161 ± 0.087
[2]
  fold change of barcode share: < 0.0111
